Test results taken from PubChem BioAssay AID445 (National Center for Advancing Translational Sciences (NCATS), 2006).
The campaign covered roughly 110,000 compounds. About 40 (0.04%) were called active. The shares of active, inactive and inconclusive entries below differ from those in the screen. Calls follow the shape of the dose curve; as a rule, active = well fitted curve in the direction sought with a large enough effect in the signal ratio (not every such curve was filed as active); inconclusive = small, poorly fitted or top-dose-only effect, or a change in a side signal; inactive = flat fitted curve, though single readings scatter; the % refers to the signal ratio. Potencies of inconclusive entries are doubtful fits and often do not repeat.

Assay: IkB Signaling;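 as to IkBa stabilization activation: 0% = basal untreated cells and 100% = reference inhibitor full response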
Conditions: ABC-DLBCL IkBa-CBG/CBR dual luciferase ratio (green luciferase fused to IkBa over red control in OCI-Ly3 lymphoma cells), 4 h, scaled: untreated 0%
Method in brief: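 In this assay, an IκBα–CBG68 fusion accumulates when IKK-driven degradation is blocked; native CBR normalizes for cell number. OCI-Ly3 cells were treated 4 h with compound and doxycycline, then green and red light read after Chroma-Glo addition.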

[1] = IkBa stabilization activation: at 57.1 µM (top of the series), proteasome inhibitor 100% unless noted
Potency is read from the fitted curve at half-maximal effect.

SMILES: CCc1nc(NCCN2CCOCC2)c2oc3ccccc3c2n1
- IkBa stabilization activation [1]: inactive

SMILES: C[C@@H](/C=C\c1cccc(Oc2ccc(F)cc2)c1)N(O)C(N)=O
- IkBa stabilization activation [1]: inconclusive: 2.54% [signal inhibitor]
- IkBa stabilization activation (at 57.1 µM (top of the series), proteasome inhibitor 100%): inactive: 3.25%

SMILES: COc1ccccc1-c1cc(C2CC2)nc(N)c1C#N
- IkBa stabilization activation [1]: inactive

SMILES: CCCCCn1c(N(C)Cc2ccccc2)nc2c1c(=O)[nH]c(=O)n2C
- IkBa stabilization activation [1]: inactive

SMILES: Cc1cccc(N2CCN(c3nnnn3-c3ccccc3)CC2C)c1 (stereo not given)
- Potency [1]: inconclusive: 39.8 µM [signal inhibitor, single point]

SMILES: CCOC(=O)N1CCN(C(=O)C(C)N(c2ccc(Oc3ccccc3)cc2)S(C)(=O)=O)CC1 (stereo not given)
- IkBa stabilization activation [1]: inconclusive: 5.29% [signal inhibitor]

SMILES: Cc1ccc(CNc2cc(C)nc3nc(-c4ccc(C)cc4)nn23)cc1
- IkBa stabilization activation [1]: inconclusive: 0.911% [signal inhibitor]

SMILES: CCn1nc(NC(=O)c2ccncc2)c2cc3cc(C)ccc3nc21
- IkBa stabilization activation [1]: inactive

SMILES: C=CCn1c(SCn2nnc3ccccc3c2=O)nc2scc(-c3cccs3)c2c1=O
- IkBa stabilization activation [1]: inactive

SMILES: CCc1ccc(O)c(N=Cc2ccccc2O)c1
- Potency [1]: inconclusive: 25.1 µM [rising, partial curve]

SMILES: Cc1ccc(C)c(NC(=O)c2nc(S(=O)(=O)Cc3ccc(F)cc3)ncc2Cl)c1
- IkBa stabilization activation [1]: inconclusive: 1.05% [signal inhibitor]

SMILES: Cc1ccsc1C(=O)OCc1csc(-c2ccccc2)n1
- Potency [1]: inconclusive: 15.8 µM [signal inhibitor, partial curve]

SMILES: CCc1ccccc1S(=O)(=O)Cc1ccc(C(=O)NCCc2ccc(Cl)cc2)o1
- IkBa stabilization activation [1]: inconclusive: 2.49% [signal inhibitor]

SMILES: COc1cccc(-c2cc(C(=O)NC3CCCC3)no2)c1
- Potency [1]: inconclusive: 12.6 µM [signal inhibitor, partial curve]

SMILES: COc1ccc(C(=O)NC2CCN(S(=O)(=O)Cc3ccccc3)CC2)c(OC)c1
- IkBa stabilization activation [1]: inactive

SMILES: CC(C)CCNc1nc(Nc2ccccc2)c2cnn(C)c2n1
- IkBa stabilization activation [1]: inconclusive: 1.87% [signal inhibitor]

SMILES: O=C(Cc1ccc(Cl)cc1)NCCc1csc2nc(-c3ccccc3F)nn12
- IkBa stabilization activation [1]: inconclusive: 2.69% [signal inhibitor]

SMILES: CN(C(=O)c1ccco1)c1nnc(C23CC4CC(CC(C4)C2)C3)s1
- IkBa stabilization activation [1]: inactive

SMILES: CCOC(=O)c1ccc(-n2c(CCC(=O)O)ccc2-c2ccccc2)cc1O
- IkBa stabilization activation [1]: inconclusive: -2.21% [signal inhibitor]

SMILES: C=CCn1c(=O)c(C(=O)Nc2ccccc2C(=O)OCC)c(O)c2ccccc21
- IkBa stabilization activation [1]: inconclusive: 16.1% [signal inhibitor]

SMILES: COCCn1c(SC(C)C(=O)Nc2ccc3c(c2)OCCO3)nc2ccccc2c1=O (stereo not given)
- IkBa stabilization activation [1]: inactive

SMILES: Nc1ccc(-n2c(N)c(C(=O)NCc3ccc4c(c3)OCO4)c3nc4ccccc4nc32)cc1
- IkBa stabilization activation [1]: inactive

SMILES: Cc1c(NC(=O)c2cccs2)cccc1-c1nc2cc(Cl)ccc2o1
- IkBa stabilization activation [1]: inconclusive: -0.768% [signal inhibitor]

SMILES: CCOc1ccc(NC(=O)c2nc(S(=O)(=O)Cc3ccccc3F)ncc2Cl)cc1
- Potency [1]: inconclusive: 6.31 µM [signal inhibitor, single point]

SMILES: COc1ccc(S(=O)(=O)n2nc(-c3ccco3)nc2NCc2ccc(C(C)C)cc2)cc1
- IkBa stabilization activation [1]: inconclusive: 0.97% [signal inhibitor]

SMILES: COCCNC(=O)CN(c1cccc(OC)c1)S(=O)(=O)c1ccc(C)cc1
- IkBa stabilization activation [1]: inactive

SMILES: COc1ccc(S(=O)(=O)NCc2cccn2Cc2cc(C)ccc2C)cc1OC
- IkBa stabilization activation [1]: inconclusive: 2.84% [signal inhibitor]

SMILES: COc1ccc(-c2cc(-c3nc(-c4cc(OC)c(OC)c(OC)c4)no3)[nH]n2)c(OC)c1
- IkBa stabilization activation [1]: inconclusive: 11.8% [signal inhibitor]

SMILES: Cn1cc(-c2nc3cncnc3n(-c3ccccc3)c2=O)c2ccccc21
- Potency [1]: inconclusive: 2.51 µM [signal inhibitor, partial curve]

SMILES: COc1ccc(CNC(=O)CCc2c(C)nc3cc(-c4ccc(OC)cc4OC)nn3c2C)cc1
- Potency [1]: inconclusive: 5.01 µM [signal inhibitor]

SMILES: CC1Oc2ccccc2N(CC(=O)c2ccccc2)C1=O (stereo not given)
- IkBa stabilization activation [1]: inactive

SMILES: Cc1cccc(NC(=O)Cn2c(=O)n(CC3CCC(C(=O)NCCc4ccccc4)CC3)c(=O)c3ccccc32)c1 (stereo not given)
- IkBa stabilization activation [1]: inconclusive: 2.58% [signal inhibitor]

SMILES: Fc1ccc(Nc2nc(-c3cccc(Cl)c3)c3c(n2)-c2ccccc2OC3)c(F)c1
- IkBa stabilization activation [1]: inactive

SMILES: N=C(N)c1ccc(/C=C\c2ccc(C(=N)N)cc2)cc1
- IkBa stabilization activation [1]: inactive: 2.2% [at 11.4 µM, scaled: untreated 0%, proteasome inhibitor 100%]
